Results: paper PMC4336329 (PLoS ONE, 2015)
Screen size: about 310,000 compounds; about 14,000 (4.5%) showed an effect of 50% or more. Effects have a minus sign here. Some of the results follow.

What follows are molecules tested against human ether-à-go-go-related gene (hERG) potassium channel (human, UniProt Q12809) (assay: primary screen, population patch clamp on CHO cells stably expressing hERG).
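Further: peak tail current of the secondary pulse compared with the same well before compound.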

Sequence of human ether-à-go-go-related gene (hERG) potassium channel (Q12809 whole entry, looked up): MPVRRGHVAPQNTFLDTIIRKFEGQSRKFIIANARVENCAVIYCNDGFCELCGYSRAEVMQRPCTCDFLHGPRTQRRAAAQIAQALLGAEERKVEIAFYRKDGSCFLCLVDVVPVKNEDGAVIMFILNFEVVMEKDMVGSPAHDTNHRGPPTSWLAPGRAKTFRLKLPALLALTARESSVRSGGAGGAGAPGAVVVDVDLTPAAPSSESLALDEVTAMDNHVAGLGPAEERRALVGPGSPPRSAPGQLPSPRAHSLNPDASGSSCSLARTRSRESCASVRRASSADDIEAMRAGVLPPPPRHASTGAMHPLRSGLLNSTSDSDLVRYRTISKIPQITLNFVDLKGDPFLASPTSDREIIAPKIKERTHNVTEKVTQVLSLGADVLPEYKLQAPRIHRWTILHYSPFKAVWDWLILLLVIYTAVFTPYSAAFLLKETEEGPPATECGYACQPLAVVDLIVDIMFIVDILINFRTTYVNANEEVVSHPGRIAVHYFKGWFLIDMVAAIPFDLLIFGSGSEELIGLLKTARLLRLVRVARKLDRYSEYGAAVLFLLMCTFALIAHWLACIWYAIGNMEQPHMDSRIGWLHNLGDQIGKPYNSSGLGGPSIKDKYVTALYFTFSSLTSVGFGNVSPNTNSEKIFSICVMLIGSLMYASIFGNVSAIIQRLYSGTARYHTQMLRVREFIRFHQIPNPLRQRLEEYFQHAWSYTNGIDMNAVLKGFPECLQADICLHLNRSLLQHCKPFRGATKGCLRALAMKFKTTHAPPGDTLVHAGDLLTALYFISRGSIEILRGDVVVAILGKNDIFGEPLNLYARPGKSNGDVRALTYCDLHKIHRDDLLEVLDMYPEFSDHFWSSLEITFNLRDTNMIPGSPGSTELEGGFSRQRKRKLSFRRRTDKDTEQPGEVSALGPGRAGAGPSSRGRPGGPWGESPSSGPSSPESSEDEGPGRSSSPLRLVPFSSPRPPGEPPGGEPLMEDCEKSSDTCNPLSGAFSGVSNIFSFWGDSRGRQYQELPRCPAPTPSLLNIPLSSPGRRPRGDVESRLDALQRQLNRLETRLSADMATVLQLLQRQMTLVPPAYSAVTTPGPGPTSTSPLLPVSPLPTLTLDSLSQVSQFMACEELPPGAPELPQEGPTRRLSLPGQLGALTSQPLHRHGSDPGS

SMILES	hERG current change (%, negative = inhibition) at 10uM [%]
Cc1cc2cc(C#N)c(N3CCN(S(C)(=O)=O)CC3)nc2cc1C	-7.09
CCC(=O)Nc1cccc(NC(=O)c2cccc([N+](=O)[O-])c2)c1	-61.2
C=CCn1c(SCCC(=O)O)nnc1-c1cccs1	6.75
COc1ccc(C2(C(=O)NC(C)C)CCCC2)cc1OC	2.35
C#CCNC(=O)C1=C[C@@H](c2ccc3c(c2)OCO3)[C@H](CCCO)[C@@H](OCC)O1	14
CC1CC(C)CN(C(=O)COC(=O)Cc2ccc(Br)cc2)C1 (centres unmarked)	16.5
O=C(/C=C/c1ccco1)NCC1CCCO1 (centres unmarked)	11.5
Cc1c(C)c2ccc(OCC(=O)N3CC[C@@]4(O)CCCC[C@H]4C3)cc2oc1=O	-5.69
COc1cc2c(c(OC)c1OC)-c1c(cc(OC)c(OC)c1OC)C[C@H](C)[C@H](C)C2	-71.9
CCN(CC)CCCn1c(=S)[nH]c2cc(C(=O)OC)ccc2c1=O	-33
Cc1cc(C)c2c(-n3cccc3)c(C(=O)NNS(=O)(=O)c3ccc(Cl)cc3)sc2n1	0.175
CCCC(=O)Nc1nnc(SCC(=O)Nc2nc(C)cs2)s1	10.7
CCn1cc(C(=O)N2CCc3ccccc32)c(=O)c2cc(S(=O)(=O)N3CCCCCC3)ccc21	-67.1
COc1ccccc1NS(=O)(=O)c1cccc(C(=O)NCC(c2cccs2)N2CCOCC2)c1 (centres unmarked)	-24.8
CCCC(c1nnnn1CCOC)N1CCN(C(=O)c2ccco2)CC1.Cl (centres unmarked)	-4.1
C/C=C(/C)C(=O)O[C@@H]1[C@H](OC(C)=O)c2c(ccc3ccc(=O)oc23)OC1(C)C	-36
CCOC(=O)NC1(C(F)(F)F)NC(=O)N(Cc2ccco2)C1=O (centres unmarked)	13
COc1ccc(C(C)=O)cc1CC(=O)Nc1cccc(S(=O)(=O)N2CCOCC2)c1	-30.3
CCOP(=O)(OCC)C(NC(=O)Nc1ccc(C)c(Cl)c1)c1ccccc1 (centres unmarked)	2.29
CC[n+]1cc(C)ccc1/C=C/c1ccc(N(C)C)cc1.[I-]	-14.6
C/C(=N/Nc1ncc(Br)cn1)c1ccc(Br)cc1	1.07
CCCc1c(C)nc2c(OC)cccc2c1SCC(=O)O	4.64

SMILES	hERG current change (%, negative = inhibition) at 10uM [%]
CN1CCN(CC(=O)Nc2ccccc2[N+](=O)[O-])CC1	-13.2
Cc1ccc(SCc2nc(N)nc(Nc3ccccc3C)n2)c(C)c1	15.2
Cc1noc(C(=O)NCc2cccnc2)c1Cl	11.2
Cc1ccc(S(=O)(=O)Nc2cc(-c3nn(C)c(=O)c4ccccc34)ccc2N2CCOCC2)cc1	-57
COc1ccc(C)cc1-n1c(C)cc(C=O)c1C	1.62
COc1ccc(NC(=O)c2cc(S(=O)(=O)N3CCCCC3)ccc2OC)cc1	-9.84
Cc1cccc(C)c1N1CCN(C(=O)c2ccc3c(c2)OCO3)CC1	-13
CCOC(=O)C1CCCN(c2c(N3CCOCC3)c(=O)c2=O)C1 (centres unmarked)	-0.407
CC1CC(C)CN(CCCSc2ccccc2)C1.O=C(O)C(=O)O (centres unmarked)	-64.3
Cc1cc(N(C)C)ccc1N=Nc1ccc(N)cc1	8.74
Cc1nc2ccccc2n1CC(=O)OCC(=O)Nc1ccc2c(c1)OCCO2	9.59
Cc1cccc(CNc2ccc(C(CC(N)=O)NC(=O)Cc3cccc4ccccc34)cc2[N+](=O)[O-])c1 (centres unmarked)	7.02
CCOC(=O)CC1C(=O)NCCN1c1nc2ccc(C)cn2c(=O)c1/C=C1\SC(=S)N(CC(C)C)C1=O (centres unmarked)	-0.649
COC(=O)c1cccc(NC(=O)CN2CCC(NC(=O)c3cc(OC)c(OC)c(OC)c3)CC2)c1	-14
COC(CNC(=O)Cc1c(C)nc2c(-c3ccccc3)c(C)nn2c1C)OC	9.32
Cc1nnc(SCC(=O)Nc2ccccc2N2CCOCC2)s1	-3.57
O=S(=O)(/C=C/c1ccccc1)c1ccccc1	-2.82
CSc1nsc(/C=C/Nc2ccc(C)cc2)c1C#N	5.14
COc1ccc(C(=O)NCc2ccc3c(c2)OCO3)cc1S(=O)(=O)N(C)Cc1ccccc1	-12.3
CCN(CC)C(=O)c1sc2c(c1C)c(=O)n(-c1ccc(C)c(C)c1)c(=O)n2CC(=O)NCC1CCCO1 (centres unmarked)	10.7
CCCn1c(CCC(=O)O)nc2cc(S(N)(=O)=O)ccc21	14.7
CCN(CC(=O)Nc1c(F)cccc1F)C(=O)c1cccc(S(=O)(=O)N2CCCCCC2)c1	-7.77

SMILES	hERG current change (%, negative = inhibition) at 10uM [%]
NS(=O)(=O)c1ccc(CCNC(=O)C2CCCCC2)cc1	23.1
C=CCN1CCN(C(=O)CCc2ccccc2)CC1	13.8
CC(C)NC(=O)NC(=O)COc1ncnc2sccc12	0.886
COc1ccc(NC(=S)c2ccncc2)cc1	17.6
CC(C)(C)C1CCC(C(=O)Nc2ccccc2N2CCOCC2)CC1 (centres unmarked)	-7.43
CCn1ncc([N+](=O)[O-])c1C(=O)Nc1ccc(C(=O)N2CCCCC2)cc1	-19.1
Cc1ccc(SCc2nc(-c3ccncc3)no2)cc1	-23.6
C=CCCC(=O)Nc1nc(C)c(-c2csc(Nc3cc(OC)ccc3OC)n2)s1	-1.58
Cc1cccc(C(=O)OCC(=O)c2c(N)n(CC(C)C)c(=O)n(C)c2=O)c1O	-15.2
CCc1ccc(-c2nc(SCC(=O)N(CCOC)c3c(N)n(Cc4ccccc4)c(=O)[nH]c3=O)n[nH]2)cc1	9.53
O=C(CCC(=O)N1CCN(c2ccc(F)cc2)CC1)c1ccc(Cl)cc1	-55.8
O=C(NCCc1ccc2c(c1)OCO2)C1CCN(S(=O)(=O)c2ccc(Cl)cc2)CC1	-14.7
COc1ccc(C(C(=O)NC2CCCC2)N(C(=O)c2ccoc2C)c2ccccc2)cc1 (centres unmarked)	-3.9
N#Cc1c(-c2ccccc2)ccnc1N1CCOCC1	10.6
COCCn1c(C)cc(C(=O)CSc2ccc(NC(C)=O)cc2)c1C	12.4
CN(C)c1ccc(/C=C/C(=O)c2cccc(Br)c2)cc1	-9.25
CC(C)(O)C#Cc1ccc([C@@H]2C[C@H]3CN(c4ccccc4)C(=O)[C@]34CCCN24)s1	11.3
CCCc1cc(=O)[nH]c(SCC(=O)c2c(N)n(C3CC3)c(=O)[nH]c2=O)n1	6.85
CC(=O)c1ccc(OCC(O)CN2CCN(CCO)CC2)cc1.Cl (centres unmarked)	9.1
Cc1ccc(/C=N/n2c(-c3ccccn3)n[nH]c2=S)o1	8.93
COc1ccc(N2CCN(C(=O)CSc3nnc4n3C(C)(C)Cc3ccccc3-4)CC2)cc1	-23.8
CCN(CC)S(=O)(=O)c1ccc(S(=O)(=O)Nc2cc3c(cc2C(C)=O)OCO3)cc1	2.49

SMILES	hERG current change (%, negative = inhibition) at 10uM [%]
CCCCNC(=O)CSc1nc2c(sc(=S)n2-c2cc(Cl)ccc2OC)c(=O)[nH]1	8.53
CCN1C(=O)N[C@@H](CCc2ccccc2)C(C(C)=O)=C1C	10.8
Cl.c1ccc(-c2csc(=Nc3cccnc3)n2CC2CCCO2)cc1 (centres unmarked)	-31.4
CN(C)c1ccnc(Oc2ccc(C(C)(C)C)cc2)c1C#N	-33.3
COc1cccc(OC)c1OCCCc1c(C)n[nH]c1C	0.765
CC(C)C(NC(=O)C12CC3CC(CC(C3)C1)C2)C(=O)N/N=C/C1=C(N2CCOCC2)C(=C\c2cccc([N+](=O)[O-])c2)/CC1 (centres unmarked)	-9.5
Cn1c(O)c(C(=Nc2ccc(F)cc2)c2ccccc2Cl)c(=O)n(C)c1=O	19.7
Cc1cc(C(=O)Nc2nnc(-c3ccccc3)s2)no1	8.46
c1ccc(CN2CCN(c3nc(-c4ccccn4)nc4ccccc34)CC2)cc1	5.45
Cc1nnc(SCC(=O)NC2CCCC2)s1	12.8
O=C(N/N=C/c1cccs1)c1ccco1	11.8
CC1=NN(c2ccccc2)C(=O)/C1=C/c1c(O)[nH]c(=S)[nH]c1=O	-3.19
CCCSc1sc(C(=O)OC)c(-c2cccs2)c1C#N	-6.78
CCC(=O)c1ccc(OCC(=O)Nc2cc(S(=O)(=O)N3CCCCC3)ccc2OC)cc1	-19.8
O=C(CNC(=O)c1ccc(S(=O)(=O)N2CCCC2)cc1)N/N=C/c1ccccc1	-42.5
COc1cccc(-n2c(SCC(=O)NCCc3ccccc3)nnc2-c2ccoc2C)c1	-76.8
Cc1cc(C)n(CC(O)CN(c2cccc([N+](=O)[O-])c2)S(=O)(=O)c2ccccc2)n1 (centres unmarked)	7.08
Cc1cc(C)cc(NC(=S)/N=C(\N)Nc2nc(C)c3ccccc3n2)c1	11
Cc1ccc(CN2C(=O)CSc3ccc(C(=O)NCCN4CCOCC4)cc32)cc1	10.8
CS(=O)(=O)N(CC(=O)NCc1ccc2c(c1)OCO2)Cc1ccc(Cl)cc1	-49.5
